We go through seven molecules from article PMC3731213.

By UniProt entry, the sequences of proteins in these tests, tags left out.
UniProt O62609: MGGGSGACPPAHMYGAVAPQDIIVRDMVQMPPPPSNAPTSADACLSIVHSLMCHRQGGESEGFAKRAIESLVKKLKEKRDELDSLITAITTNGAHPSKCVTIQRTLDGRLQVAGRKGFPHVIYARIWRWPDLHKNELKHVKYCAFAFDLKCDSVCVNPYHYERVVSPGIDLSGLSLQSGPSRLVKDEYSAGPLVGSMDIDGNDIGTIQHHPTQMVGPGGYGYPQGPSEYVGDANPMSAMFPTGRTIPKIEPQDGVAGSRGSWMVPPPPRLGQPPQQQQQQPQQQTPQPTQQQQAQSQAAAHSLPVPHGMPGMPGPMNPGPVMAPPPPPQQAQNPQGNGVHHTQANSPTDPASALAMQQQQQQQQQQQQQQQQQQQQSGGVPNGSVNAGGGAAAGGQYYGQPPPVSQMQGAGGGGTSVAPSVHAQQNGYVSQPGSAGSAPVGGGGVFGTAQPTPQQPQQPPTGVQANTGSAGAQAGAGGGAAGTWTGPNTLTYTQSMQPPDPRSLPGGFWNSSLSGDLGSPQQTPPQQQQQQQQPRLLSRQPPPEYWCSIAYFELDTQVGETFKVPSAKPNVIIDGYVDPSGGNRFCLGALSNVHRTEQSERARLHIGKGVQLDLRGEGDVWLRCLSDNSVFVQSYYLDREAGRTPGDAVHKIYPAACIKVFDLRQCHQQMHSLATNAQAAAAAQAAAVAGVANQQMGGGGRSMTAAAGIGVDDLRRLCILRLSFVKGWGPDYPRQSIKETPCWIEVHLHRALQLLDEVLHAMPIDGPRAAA
UniProt P42003: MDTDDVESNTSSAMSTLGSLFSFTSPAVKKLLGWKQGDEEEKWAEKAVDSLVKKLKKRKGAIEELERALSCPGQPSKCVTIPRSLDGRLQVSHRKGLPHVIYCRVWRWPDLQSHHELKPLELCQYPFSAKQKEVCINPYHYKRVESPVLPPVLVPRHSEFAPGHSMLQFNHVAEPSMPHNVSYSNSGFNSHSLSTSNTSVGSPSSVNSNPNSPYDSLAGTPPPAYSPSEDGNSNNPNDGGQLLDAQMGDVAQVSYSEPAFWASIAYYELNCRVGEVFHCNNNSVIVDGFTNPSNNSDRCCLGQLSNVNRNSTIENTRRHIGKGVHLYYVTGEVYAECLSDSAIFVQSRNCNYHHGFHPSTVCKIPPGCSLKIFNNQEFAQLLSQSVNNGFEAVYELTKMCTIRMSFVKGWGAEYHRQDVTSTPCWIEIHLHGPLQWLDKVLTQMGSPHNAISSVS
UniProt Q24533: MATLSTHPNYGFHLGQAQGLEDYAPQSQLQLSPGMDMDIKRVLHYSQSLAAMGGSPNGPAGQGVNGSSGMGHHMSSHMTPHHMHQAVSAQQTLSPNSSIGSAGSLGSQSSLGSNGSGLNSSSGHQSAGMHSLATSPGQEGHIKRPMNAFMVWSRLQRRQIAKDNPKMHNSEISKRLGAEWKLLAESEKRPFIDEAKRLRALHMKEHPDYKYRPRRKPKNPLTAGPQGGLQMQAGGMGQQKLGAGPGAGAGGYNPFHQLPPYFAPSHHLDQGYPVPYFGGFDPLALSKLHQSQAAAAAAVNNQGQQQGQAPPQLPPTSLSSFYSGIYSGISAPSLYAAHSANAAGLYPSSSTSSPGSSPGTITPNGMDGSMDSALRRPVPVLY
UniProt O61735: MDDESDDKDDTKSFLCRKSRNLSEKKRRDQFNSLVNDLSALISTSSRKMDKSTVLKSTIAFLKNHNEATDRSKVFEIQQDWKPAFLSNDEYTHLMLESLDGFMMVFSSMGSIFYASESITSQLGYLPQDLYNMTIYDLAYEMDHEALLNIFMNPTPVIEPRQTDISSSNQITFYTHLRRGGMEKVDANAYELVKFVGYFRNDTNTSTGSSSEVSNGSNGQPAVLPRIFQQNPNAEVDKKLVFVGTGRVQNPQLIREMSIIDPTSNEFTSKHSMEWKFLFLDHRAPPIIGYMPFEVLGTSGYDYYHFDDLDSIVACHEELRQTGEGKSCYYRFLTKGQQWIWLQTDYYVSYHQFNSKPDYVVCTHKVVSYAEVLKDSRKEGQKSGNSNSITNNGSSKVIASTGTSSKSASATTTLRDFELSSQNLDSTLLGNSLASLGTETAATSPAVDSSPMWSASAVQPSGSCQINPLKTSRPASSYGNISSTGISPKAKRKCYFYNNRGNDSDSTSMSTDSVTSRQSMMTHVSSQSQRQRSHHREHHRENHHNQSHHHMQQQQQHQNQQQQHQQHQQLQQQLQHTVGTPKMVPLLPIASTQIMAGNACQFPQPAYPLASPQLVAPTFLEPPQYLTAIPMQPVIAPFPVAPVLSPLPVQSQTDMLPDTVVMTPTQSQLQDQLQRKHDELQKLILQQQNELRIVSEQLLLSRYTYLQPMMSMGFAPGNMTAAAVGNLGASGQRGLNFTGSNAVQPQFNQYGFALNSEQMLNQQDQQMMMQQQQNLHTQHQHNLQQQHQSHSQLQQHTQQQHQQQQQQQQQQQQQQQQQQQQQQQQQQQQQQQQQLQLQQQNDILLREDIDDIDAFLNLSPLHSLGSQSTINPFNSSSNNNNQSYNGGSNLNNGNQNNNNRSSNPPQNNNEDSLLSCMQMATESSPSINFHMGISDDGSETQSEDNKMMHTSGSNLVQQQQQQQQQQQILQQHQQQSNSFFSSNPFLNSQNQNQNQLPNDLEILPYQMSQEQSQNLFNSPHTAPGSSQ

Results are given in words; binding and its absence hold for the method and conditions named. In cells and extracts the contact can be indirect. Some entries that bind do so weakly or less than the wild type.

What all share (assay): pull-down; modified LUMIER/LuMPIS: one partner fused to MBP, the other to Renilla luciferase, each made in a purified prokaryotic in vitro expression system and then combined; IP buffer (150 mM NaCl, 50 mM Tris pH 7.4), 4°C, 2 h; MBP-tagged protein isolated on amylose resin blocked with 5 percent BSA; luciferase retained relative to unfused luc gives the luminescence intensity ratio (LIR), cutoff 7 for positive; each pair in both configurations; duplicates

Test [1] has as its target Medea (MED) (D. melanogaster) (UniProt O62609).
The target in test [2] is Mothers against dpp (MAD) (D. melanogaster) (UniProt P42003).
For a further test, the target named is T1, CYC (D. melanogaster) (UniProt O61734).
T1 sequence: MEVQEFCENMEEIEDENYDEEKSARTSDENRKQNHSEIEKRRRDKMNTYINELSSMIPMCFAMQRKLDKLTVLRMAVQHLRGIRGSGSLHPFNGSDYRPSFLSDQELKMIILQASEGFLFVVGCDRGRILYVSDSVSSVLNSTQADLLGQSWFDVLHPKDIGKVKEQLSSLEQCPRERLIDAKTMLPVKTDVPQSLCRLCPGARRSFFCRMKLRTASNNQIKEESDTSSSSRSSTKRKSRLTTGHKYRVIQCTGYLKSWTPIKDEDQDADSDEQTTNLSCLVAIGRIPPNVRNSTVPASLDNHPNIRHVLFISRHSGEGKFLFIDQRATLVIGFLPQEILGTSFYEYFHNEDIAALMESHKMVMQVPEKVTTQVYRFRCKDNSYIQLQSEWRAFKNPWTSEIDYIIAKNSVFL

Test [3] addresses giant (GT) (D. melanogaster) (UniProt P39572).
Test [4] has as its target T2, Adh transcription factor 1 (ADF1) (D. melanogaster) (UniProt P05552).
T2 sequence: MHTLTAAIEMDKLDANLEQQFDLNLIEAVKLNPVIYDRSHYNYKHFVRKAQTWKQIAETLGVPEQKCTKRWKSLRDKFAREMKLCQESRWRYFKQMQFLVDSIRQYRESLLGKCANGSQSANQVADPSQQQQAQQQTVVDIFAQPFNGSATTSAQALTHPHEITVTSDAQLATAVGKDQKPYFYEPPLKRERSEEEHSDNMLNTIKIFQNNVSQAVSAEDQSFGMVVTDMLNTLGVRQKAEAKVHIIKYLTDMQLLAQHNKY

In test [5] the target is T3, hunchback (HB) (D. melanogaster) (UniProt P05084).
T3 sequence: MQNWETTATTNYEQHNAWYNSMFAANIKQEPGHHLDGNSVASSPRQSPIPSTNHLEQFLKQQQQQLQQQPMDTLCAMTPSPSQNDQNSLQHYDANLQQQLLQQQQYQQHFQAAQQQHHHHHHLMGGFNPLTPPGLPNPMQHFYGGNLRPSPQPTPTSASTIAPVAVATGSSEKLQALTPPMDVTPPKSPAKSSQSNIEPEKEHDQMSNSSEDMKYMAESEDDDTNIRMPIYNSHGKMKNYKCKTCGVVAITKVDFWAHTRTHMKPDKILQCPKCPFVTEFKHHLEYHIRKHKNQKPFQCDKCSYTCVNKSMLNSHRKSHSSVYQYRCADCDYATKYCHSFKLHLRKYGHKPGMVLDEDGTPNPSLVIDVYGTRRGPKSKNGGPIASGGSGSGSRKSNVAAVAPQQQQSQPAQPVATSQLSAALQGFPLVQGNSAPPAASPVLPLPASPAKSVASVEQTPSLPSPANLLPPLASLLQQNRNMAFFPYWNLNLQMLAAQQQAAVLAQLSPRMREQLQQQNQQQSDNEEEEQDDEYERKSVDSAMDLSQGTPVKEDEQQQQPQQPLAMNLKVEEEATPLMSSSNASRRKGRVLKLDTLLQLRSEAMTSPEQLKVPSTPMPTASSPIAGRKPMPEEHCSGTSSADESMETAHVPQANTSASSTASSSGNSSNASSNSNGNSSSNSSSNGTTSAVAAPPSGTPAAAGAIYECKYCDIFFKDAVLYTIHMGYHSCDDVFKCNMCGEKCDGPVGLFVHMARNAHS

Take “Mothers against dpp (MAD) (from UniProt P42003 1-455)”: the binding result in test [1] is “binds”. “D (SOX domain protein) (from UniProt Q24533 1-382)”: the binding result in test [2] was “binds”.

For CLK (from UniProt O61735 1-1027), in the test with CYC (D. melanogaster), the binding entry is given as “binds”.

B1: giant (GT) (protein, UniProt P39572 1-448)
chain: MLMHEKLMAGQFFDLKTDRKPLMHHHQYQHHQQQPLHHLPHSQLPVQGSLGLPKMDLYTAYAYQQQLLGAALSQQQQQQQQQQQHQQLQQQHTSSAEVLDLSRRCDSVETPRKTPSPYQTSYSYGSGSPSASPTSNLLYAAQMQQQQHQQQQQQQQQQQQLASLYPAFYYSNIKQEQATPTAAPPKVTPTANLLQTFAAASAAAAAAAAASSTNSPRPASNASTMQIDVLENPLSPAVEATTPTTSSSGEAGKNTRPFKAFPRDPLVIAANFAATDVLLDNPRVERYTEYRKRVLEQIRSSNGGSRTVTNPKMRRTNSRSGSVNEGSSSNNNSESEDRAAAEESSDCDSQAGNFESKSATSSSSNLANATAANSGISSGSQVKDAAYYERRRKNNAAAKKSRDRRRIKEDEIAIRAAYLERQNIELLCQIDALKVQLAAFTSAKVTTA
Consider B1, for which the binding entry in test [3] is “binds”.

B2: hunchback (HB) (protein, UniProt P05084 1-758)
chain: MQNWETTATTNYEQHNAWYNSMFAANIKQEPGHHLDGNSVASSPRQSPIPSTNHLEQFLKQQQQQLQQQPMDTLCAMTPSPSQNDQNSLQHYDANLQQQLLQQQQYQQHFQAAQQQHHHHHHLMGGFNPLTPPGLPNPMQHFYGGNLRPSPQPTPTSASTIAPVAVATGSSEKLQALTPPMDVTPPKSPAKSSQSNIEPEKEHDQMSNSSEDMKYMAESEDDDTNIRMPIYNSHGKMKNYKCKTCGVVAITKVDFWAHTRTHMKPDKILQCPKCPFVTEFKHHLEYHIRKHKNQKPFQCDKCSYTCVNKSMLNSHRKSHSSVYQYRCADCDYATKYCHSFKLHLRKYGHKPGMVLDEDGTPNPSLVIDVYGTRRGPKSKNGGPIASGGSGSGSRKSNVAAVAPQQQQSQPAQPVATSQLSAALQGFPLVQGNSAPPAASPVLPLPASPAKSVASVEQTPSLPSPANLLPPLASLLQQNRNMAFFPYWNLNLQMLAAQQQAAVLAQLSPRMREQLQQQNQQQSDNEEEEQDDEYERKSVDSAMDLSQGTPVKEDEQQQQPQQPLAMNLKVEEEATPLMSSSNASRRKGRVLKLDTLLQLRSEAMTSPEQLKVPSTPMPTASSPIAGRKPMPEEHCSGTSSADESMETAHVPQANTSASSTASSSGNSSNASSNSNGNSSSNSSSNGTTSAVAAPPSGTPAAAGAIYECKYCDIFFKDAVLYTIHMGYHSCDDVFKCNMCGEKCDGPVGLFVHMARNAHS
Take B2: the binding result in test [4] is “binds”.

B3: ribbon (RIB) (protein, UniProt Q7KF43 1-661)
chain: MGGPTAPVASSGEVGQTYCLRWNNHQTNLVQILHALHEVGSYVDCSLVVDDEQFQAHRVVLAANSPYFQHILKDVPQDHCSIILPGVKGFEIAALLQYMYTGETTVTKSQEPEILRTAKELQVKGLYDNLMKFNHASVTPTSSSGAGGAKPQNGSASNHSSSVISTSTHISPSAAISSSCSPPPPPQFGYQPGYSHYPQQQPMSASQIPAGEAPLTPTQATPHSAASGAGEAGGQWPLTPSAAAAMLNSVYESAADMNPLKRKKLSAISSMLLSGNRDTPILRNVLAQANPADSSQPGPMNANGEKTPTHPHQNTQLPAGLGVSGGERNHSFNGSDYGGDKEPLSPYTDRSFEEETGQSGGKKPEWKRYKQYTRADMMCAIQAVREGMSALQASRKYGLPSRTLYDKVRKLNITTGRGTHRTPKRSPPGAESSQGFSYSAAAAAAAHNYGHGHGHHSEVKRDQKVDHVPAHHGMPPTIPPSAAALLDHAFLQQALENRGGDMAGREALHAMALAAAAHAAANRLSSSPAEMDQRSNGHGMRSPSPQGRHYPHEQEAMDLEMEKHEQNIIKRERDQDEREDADDEEDHEQEHVEDLSLARKERPPSPYSPQPTEAGAGVIMHASSASANGKDHVDYPSSPQFVPIGLKRELMEGEDAQARAD
Take B3: the figures for the binding entry in test [1] and in test [2] were “no binding” and “binds”, respectively.

B4: Adh transcription factor 1 (ADF1) (protein, UniProt P05552 1-262)
chain: MHTLTAAIEMDKLDANLEQQFDLNLIEAVKLNPVIYDRSHYNYKHFVRKAQTWKQIAETLGVPEQKCTKRWKSLRDKFAREMKLCQESRWRYFKQMQFLVDSIRQYRESLLGKCANGSQSANQVADPSQQQQAQQQTVVDIFAQPFNGSATTSAQALTHPHEITVTSDAQLATAVGKDQKPYFYEPPLKRERSEEEHSDNMLNTIKIFQNNVSQAVSAEDQSFGMVVTDMLNTLGVRQKAEAKVHIIKYLTDMQLLAQHNKY
In the case of B4, in test [5], the binding result is “binds”.
